Source: the supplement of paper PMC12217912
The other results are listed elsewhere or left out. The full chains were built here from the parent and the listed change. Values near 0.05 are background.

B1: TEV protease; numbered along this chain (parent)
chain: MGESLFKGPRDYNPISSSICHLTNESDGHTTSLYGIGFGPFIITNKHLFRRNNGTLVVQSLHGVFKVKDTTTLQQHLVDGRDMIIIRMPKDFPPFPQKLKFREPQREERICLVTTNFQTKSMSSMVSDTSCTFPSGDGIFWKHWIQTKDGQCGSPLVSTRDGFIVGIHSASNFTNTNNYFTSVPKNFMELLTNQEAQQWVSGWRLNADSVLWGGHKVFMVKPEEPFQPVKEATQL

Variants of: B1
Test: raw area under fraction-flipped curve 0-4 h after induction (AUC4h, not background-subtracted), DNA-recorder readout of cleavage of the substrate (dimensionless); higher = more cleavage of the substrate by the protease variant
Conditions: temperature: 34 °C; time window: 0-4 h after rhamnose induction
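Also: Bxb1 expression induced with 0.2% (w/v) L-rhamnose at OD600 near 0.5, cultures sampled hourly, flipped fraction per protease–substrate barcode pair counted by paired-end Illumina sequencing.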

Variant | area with substrate ENLYEQS | area with substrate ENLYHQS | area with substrate ENLYKQS | area with substrate ENLYNQS | area with substrate ENLYPQS | area with substrate ENLYSQS | area with substrate ENLYTQS | area with substrate ENLYWQS | area with substrate ENLYDQS | area with substrate ENLYGQS | area with substrate ENLYIQS | area with substrate ENLYMQS | area with substrate ENLYQQS | area with substrate ENLYRQS | area with substrate ENLYVQS | area with substrate ENLYYQS | area with substrate ENLYLQS
T30M | 0.0647 | 0.0687 | 0.0496 | 0.0532 | 0.0394 | 0.099 | 0.0709 | 0.0985 |  |  |  |  |  |  |  |  | 
G213I | 0.0591 | 0.0547 |  |  | 0.0485 |  |  | 0.0535 | 0.0578 | 0.0556 | 0.0568 | 0.0795 | 0.0568 |  |  |  | 
G213P | 0.0472 |  |  |  | 0.0603 |  |  |  | 0.0306 |  |  |  |  |  |  |  | 
S209M | 0.0676 | 0.0619 |  |  | 0.0686 | 0.0719 |  |  | 0.0661 | 0.0797 | 0.127 | 0.0803 |  | 0.0502 | 0.0037 |  | 
A232D |  | 0.0572 | 0.0583 | 0.0717 | 0.0613 |  | 0.0865 | 0.102 | 0.0544 |  | 0.139 |  | 0.0664 |  | 0.142 | 0.0378 | 
A232I |  | 0.0677 | 0.0684 | 0.0771 |  |  |  | 0.0893 | 0.0624 |  | 0.119 | 0.086 | 0.0638 |  |  |  | 
V210W | 0.047 |  | 0.0597 | 0.0718 | 0.0842 | 0.0679 |  |  | 0.0439 | 0.0583 |  |  | 0.0467 | 0.0395 |  | 0.0606 | 0.0886
L191W | 0.06 | 0.0643 | 0.0776 | 0.054 | 0.0594 |  |  | 0.0698 |  | 0.0531 | 0.0889 | 0.05 | 0.0638 | 0.0373 | 0.1 |  | 
A170N | 0.0306 |  | 0.0508 | 0.0719 |  |  | 0.0683 | 0.0629 |  | 0.0577 | 0.0633 |  |  | 0.0703 |  |  | 
F218E | 0.064 | 0.0542 | 0.0629 | 0.0627 | 0.063 |  |  | 0.0602 | 0.0541 | 0.0541 | 0.0818 | 0.0727 | 0.0615 | 0.0551 | 0.104 |  | 0.0666
I84M | 0.0607 | 0.0883 | 0.0529 | 0.0559 |  |  |  |  |  | 0.0606 |  | 0.0742 |  | 0.0512 | 0.108 |  | 
Y12T | 0.0821 | 0.0651 |  |  |  | 0.0893 |  |  |  | 0.0653 | 0.12 | 0.0888 | 0.0705 | 0.0587 |  |  | 
V157T | 0.0651 | 0.0643 | 0.0552 |  | 0.0501 |  |  | 0.0732 |  | 0.0666 |  |  |  | 0.0599 | 0.12 |  | 
L205P | 0.0553 | 0.0478 | 0.0479 | 0.0475 | 0.035 |  | 0.0531 |  | 0.066 |  | 0.0447 |  |  |  |  | 0.0524 | 
Q146G | 0.0837 | 0.062 |  | 0.0598 | 0.08 | 0.0512 |  | 0.0899 |  |  | 0.138 | 0.0986 | 0.0694 | 0.0792 | 0.121 |  | 
T72M | 0.072 | 0.0715 | 0.0223 |  | 0.0978 |  |  |  |  | 0.0563 |  | 0.0479 | 0.0415 |  |  |  | 0.0886
T233V |  | 0.105 |  | 0.0716 |  | 0.0844 |  |  | 0.0645 | 0.0637 | 0.0869 |  | 0.0562 |  | 0.088 |  | 
T233A |  | 0.0749 |  |  | 0.065 |  | 0.071 | 0.0807 | 0.0607 | 0.0582 | 0.111 |  | 0.0554 | 0.0508 |  |  | 
